Reference: the supplement of paper PMC8728848
This is one part of the list.

Columns and labels:
Assay in all cases: glycan array binding signal (z-score within array); higher = stronger binding
Conditions in all cases: glycan notation: IUPAC condensed, linker removed
[1] = biological target: GlcNAc(b1-3)Gal(b1-4)GlcNAc(b1-3)Gal(b1-4)GlcNAc(b1-2)Man(a1-3)[GlcNAc(b1-3)Gal(b1-4)GlcNAc(b1-3)Gal(b1-4)GlcNAc(b1-2)Man(a1-6)]Man(b1-4)GlcNAc(b1-4)GlcNAc
Outline: (§1)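 The Consortium for Functional Glycomics database supplied 3228 glycan arrays, of which those lacking an available protein sequence were dropped. The binding signal, a within-array Z-score, was averaged across arrays of the same protein sequence and across linkers. Negative scores can be read as non-binding.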

[2] = biological target: GlcNAc(b1-3)Gal(b1-4)GlcNAc(b1-3)Gal(b1-4)GlcNAc(b1-2)Man(a1-3)[GlcNAc(b1-3)Gal(b1-4)GlcNAc(b1-3)Gal(b1-4)GlcNAc(b1-2)Man(a1-6)]Man(b1-4)GlcNAc(b1-4)[Fuc(a1-6)]GlcNAc
Outline: as §1

[3] = biological target: GlcNAc(b1-3)Gal(b1-4)GlcNAc(b1-3)Gal(b1-4)GlcNAc(b1-2)[GlcNAc(b1-3)Gal(b1-4)GlcNAc(b1-3)Gal(b1-4)GlcNAc(b1-6)]Man(a1-6)[GlcNAc(b1-3)Gal(b1-4)GlcNAc(b1-3)Gal(b1-4)GlcNAc(b1-2)Man(a1-3)]Man(b1-4)GlcNAc(b1-4)[Fuc(a1-6)]GlcNAc
Outline: as §1

[4] = biological target: GlcNAc(b1-3)Gal(b1-4)GlcNAc(b1-3)Gal(b1-4)GlcNAc(b1-3)Gal(b1-4)GlcNAc(b1-2)Man(a1-3)[GlcNAc(b1-3)Gal(b1-4)GlcNAc(b1-3)Gal(b1-4)GlcNAc(b1-3)Gal(b1-4)GlcNAc(b1-2)Man(a1-6)]Man(b1-4)GlcNAc(b1-4)GlcNAc
Outline: as §1

[5] = biological target: GlcNAc(b1-3)Gal(b1-4)GlcNAc(b1-3)Gal(b1-4)GlcNAc(b1-3)Gal(b1-4)GlcNAc(b1-2)Man(a1-3)[GlcNAc(b1-3)Gal(b1-4)GlcNAc(b1-3)Gal(b1-4)GlcNAc(b1-3)Gal(b1-4)GlcNAc(b1-2)Man(a1-6)]Man(b1-4)GlcNAc(b1-4)[Fuc(a1-6)]GlcNAc
Outline: as §1

[6] = biological target: GlcNAc(b1-3)Gal(b1-4)GlcNAc(b1-3)Gal(b1-4)GlcNAc(b1-3)Gal(b1-4)GlcNAc(b1-2)[GlcNAc(b1-3)Gal(b1-4)GlcNAc(b1-3)Gal(b1-4)GlcNAc(b1-3)Gal(b1-4)GlcNAc(b1-6)]Man(a1-6)[GlcNAc(b1-3)Gal(b1-4)GlcNAc(b1-3)Gal(b1-4)GlcNAc(b1-3)Gal(b1-4)GlcNAc(b1-2)Man(a1-3)]Man(b1-4)GlcNAc(b1-4)[Fuc(a1-6)]GlcNAc
Outline: as §1

[7] = biological target: GlcNAc(b1-3)Gal(b1-4)GlcNAc(b1-3)Gal(b1-4)GlcNAc(b1-3)Gal(b1-4)GlcNAc(b1-3)Gal(b1-4)GlcNAc(b1-2)Man(a1-3)[GlcNAc(b1-3)Gal(b1-4)GlcNAc(b1-3)Gal(b1-4)GlcNAc(b1-3)Gal(b1-4)GlcNAc(b1-3)Gal(b1-4)GlcNAc(b1-2)Man(a1-6)]Man(b1-4)GlcNAc(b1-4)GlcNAc
Outline: as §1

[8] = biological target: GlcNAc(b1-3)Gal(b1-4)GlcNAc(b1-3)Gal(b1-4)GlcNAc(b1-3)Gal(b1-4)GlcNAc(b1-3)Gal(b1-4)GlcNAc(b1-2)Man(a1-3)[GlcNAc(b1-3)Gal(b1-4)GlcNAc(b1-3)Gal(b1-4)GlcNAc(b1-3)Gal(b1-4)GlcNAc(b1-3)Gal(b1-4)GlcNAc(b1-2)Man(a1-6)]Man(b1-4)GlcNAc(b1-4)[Fuc(a1-6)]GlcNAc
Outline: as §1

[9] = biological target: GlcNAc(b1-3)Gal(b1-4)GlcNAc(b1-3)Gal(b1-4)GlcNAc(b1-3)Gal(b1-4)GlcNAc(b1-3)Gal(b1-4)GlcNAc(b1-2)[GlcNAc(b1-3)Gal(b1-4)GlcNAc(b1-3)Gal(b1-4)GlcNAc(b1-3)Gal(b1-4)GlcNAc(b1-3)Gal(b1-4)GlcNAc(b1-6)]Man(a1-6)[GlcNAc(b1-3)Gal(b1-4)GlcNAc(b1-3)Gal(b1-4)GlcNAc(b1-3)Gal(b1-4)GlcNAc(b1-3)Gal(b1-4)GlcNAc(b1-2)Man(a1-3)]Man(b1-4)GlcNAc(b1-4)[Fuc(a1-6)]GlcNAc
Outline: as §1

[10] = biological target: GlcNAc(b1-3)Gal(b1-4)GlcNAc(b1-3)Gal(b1-4)GlcNAc(b1-3)GalNAc
Outline: as §1

[11] = biological target: GlcNAc(b1-3)Gal(b1-4)GlcNAc(b1-3)GalNAc
Outline: as §1

[12] = biological target: GlcNAc(b1-3)Gal(b1-4)GlcNAc(b1-3)[GlcNAc(b1-3)Gal(b1-4)GlcNAc(b1-3)]GalNAc
Outline: as §1

[13] = biological target: GlcNAc(b1-3)Gal(b1-4)GlcNAc(b1-6)[Gal(b1-3)]GalNAc
Outline: as §1

[14] = biological target: GlcNAc(b1-3)Gal(b1-4)GlcNAc(b1-6)[GlcNAc(b1-3)Gal(b1-3)]GalNAc
Outline: as §1

[15] = biological target: GlcNAc(b1-3)Gal(b1-4)GlcNAc(b1-6)[GlcNAc(b1-3)]Gal(b1-4)GlcNAc
Outline: as §1

[16] = biological target: GlcNAc(b1-3)GalNAc
Outline: as §1

[17] = biological target: GlcNAc(b1-3)Man
Outline: as §1

[18] = biological target: GlcNAc(b1-3)[GlcNAc(b1-4)][GlcNAc(b1-6)]GlcNAc
Outline: as §1

[19] = biological target: GlcNAc(b1-3)[GlcNAc(b1-6)]Gal(b1-4)GlcNAc
Outline: as §1

[20] = biological target: GlcNAc(b1-3)[GlcNAc(b1-6)]GalNAc
Outline: as §1

[21] = biological target: GlcNAc(b1-4)Gal(b1-4)GlcNAc
Outline: as §1

[22] = biological target: GlcNAc(b1-4)GlcNAc
Outline: as §1

[23] = biological target: GlcNAc(b1-4)GlcNAc(b1-4)GlcNAc
Outline: as §1

CTAEGIKKFEGDGYELFKDNFPAGEKFDNDDTNDQFYTVIF [MUB40 (Lactobacillus reuteri)]
glycan array binding signal (z-score) [1]: 1.03
glycan array binding signal (z-score) [2]: 2.39
glycan array binding signal (z-score) [3]: 0.204
glycan array binding signal (z-score) [4]: 0.376
glycan array binding signal (z-score) [5]: 4.26
glycan array binding signal (z-score) [6]: 0.238
glycan array binding signal (z-score) [7]: -0.228
glycan array binding signal (z-score) [8]: 2.26
glycan array binding signal (z-score) [9]: 0.15
glycan array binding signal (z-score) [10]: 0.054
glycan array binding signal (z-score) [11]: -0.176
glycan array binding signal (z-score) [12]: -0.149
glycan array binding signal (z-score) [13]: -1.06
glycan array binding signal (z-score) [14]: 1.71
glycan array binding signal (z-score) [15]: 0.183
glycan array binding signal (z-score) [16]: -0.205
glycan array binding signal (z-score) [17]: -0.357
glycan array binding signal (z-score) [18]: -0.035
glycan array binding signal (z-score) [19]: -0.672
glycan array binding signal (z-score) [20]: 0.365
glycan array binding signal (z-score) [21]: -0.459
glycan array binding signal (z-score) [22]: -0.521
glycan array binding signal (z-score) [23]: -0.402
